Measurements reported in PubChem BioAssay AID2147 (National Center for Advancing Translational Sciences (NCATS), 2009).
Hit rate of the full screen: of about 230,000 compounds, about 3,600 (1.6%) were called active. The inconclusive results got no clear call from the source; some entries with a clear call stand among them for comparison. Calls follow the shape of the dose curve; as a rule, active = well fitted inhibition curve with a large enough effect (not every such curve was filed as active); inconclusive = small, poorly fitted or top-dose-only effect, or another doubt; inactive = no such curve, though single readings can be large or run the other way. Potencies beside an inconclusive call are fits to weak or partial responses and may not hold up.
Also: nearly all actives have a fitted effect of over 50% in size.
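For activity change, negative = inhibition in this document: 0% = wells with enzyme and -100% = buffer wells without enzyme.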
Potency is read from the fitted curve at half-maximal effect; tags tell the direction and shape of the fitted curve.

Each compound was assayed against Lysine-specific demethylase 4E (Homo sapiens) (UniProt B2RXH2) (assay: qHTS Assay for Inhibitors of Human Jumonji Domain Containing 2E (JMJD2E)). Conditions: JMJD2E catalytic domain, FDH-coupled NADH fluorescence (FDH is formaldehyde dehydrogenase); series mostly up to 57.1 µM; activity change, negative = inhibition: at the top concentration.
Sequence of UniProt B2RXH2 (B2RXH2 whole entry, looked up, the tested form may be a part): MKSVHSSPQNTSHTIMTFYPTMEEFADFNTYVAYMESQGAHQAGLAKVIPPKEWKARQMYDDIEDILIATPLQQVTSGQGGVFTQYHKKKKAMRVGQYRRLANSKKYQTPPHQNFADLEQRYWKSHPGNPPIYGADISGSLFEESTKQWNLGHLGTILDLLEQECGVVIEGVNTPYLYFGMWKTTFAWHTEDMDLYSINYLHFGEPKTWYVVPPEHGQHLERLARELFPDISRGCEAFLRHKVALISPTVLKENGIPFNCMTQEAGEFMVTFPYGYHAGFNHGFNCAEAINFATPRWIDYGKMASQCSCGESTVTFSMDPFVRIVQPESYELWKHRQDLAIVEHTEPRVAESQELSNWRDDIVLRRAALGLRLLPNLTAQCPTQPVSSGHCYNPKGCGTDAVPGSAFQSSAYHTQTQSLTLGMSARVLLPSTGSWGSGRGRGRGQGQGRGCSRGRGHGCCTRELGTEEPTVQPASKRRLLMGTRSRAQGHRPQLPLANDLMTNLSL
For `Cc1ccc(/C=C2\SC(=S)N(c3cccnc3)C2=O)o1`, the Potency was active: 11.2 µM.
For `Cc1ccc(-c2cc(NC(=O)CCl)n(-c3ccccc3)n2)cc1`, the “activity change, negative = inhibition” value was inactive: -21.2%.
With `COc1ccc(-c2noc(CCC(=O)Nc3cccnc3)n2)cc1OC` the “activity change, negative = inhibition” value was inactive: 3.32%.
In the case of `COc1ccc(C2Nc3ccccc3C(=O)N2NS(C)(=O)=O)cc1` (centres undefined), the Potency was inconclusive: 28.2 µM [inhibitor, partial curve].
In the case of `COC(=O)c1ccccc1NC(=O)CSc1nc2ccccc2c(=O)[nH]1`, the Potency was inconclusive: 31.6 µM [inhibitor, single point].
For `O=C(Nc1ccc(N2CCN(C(=O)c3ccccc3)CC2)cc1)c1ccc2c(c1)OCO2`, the “activity change, negative = inhibition” value was inactive: 12.1%.
With `COC(=O)Cc1c(C)c2ccc(OC(=O)c3ccco3)cc2oc1=O` the Potency was inconclusive: 11.2 µM [inhibitor, partial curve].
For `COc1cc2c(cc1OC)C(CCc1ccccc1)=NCC2`, the Potency was inconclusive: 28.2 µM [inhibitor, partial curve].
In the case of `COC(CNC(=O)c1coc2nc3ccccc3nc12)OC`, the Potency was inconclusive: 28.2 µM [inhibitor, partial curve].
In the case of `COCCNC(=O)c1cc2c(-c3ccccc3F)nn(C)c2s1`, the Potency was inconclusive: 31.6 µM [inhibitor, partial curve].
`CCOc1ccc(NC(=O)CSc2nc3nc4c(cc3c(=O)n2CC)COC(C)(C)C4)cc1` was tested, and the “activity change, negative = inhibition” value was inactive: 5.2%.
`COc1cc2ncnc(NCc3ccco3)c2cc1OC` was tested, and the “activity change, negative = inhibition” value was inactive: -3.48%.
`CCn1c(COc2cccc3cccnc23)nnc1SCC(=O)O` was tested, and the Potency was inconclusive: 39.8 µM [inhibitor, single point].
In the case of `CCn1c(=O)c(C(=O)NNS(=O)(=O)c2ccc(Cl)cc2)c(O)c2ccccc21`, the Potency was inconclusive: 39.8 µM [inhibitor, single point].
For `Cc1cccc2cc(COC(=O)C(C)(C)C)c(=O)[nH]c12`, the Potency was inconclusive: 22.4 µM [inhibitor, single point].
In the case of `COc1ccc(/C=C/C(O)=C(\C#N)c2nnc(N3CCOCC3)n2-c2ccccc2)cc1OC`, the Potency was inconclusive: 35.5 µM [inhibitor, single point].
In the case of `COc1cccc(-c2ccc3ncnc(NCc4cccs4)c3c2)c1`, the Potency was inconclusive: 31.6 µM [inhibitor, single point].
In the case of `COc1ccc(NC(=S)N(CCN2CCOCC2)Cc2cc3cc4c(cc3[nH]c2=O)OCO4)cc1`, the Potency was inconclusive: 31.6 µM [inhibitor, partial curve].
`CCOc1cc(C=O)ccc1OCc1cc(=O)n2cc(C)ccc2n1` was tested, and the Potency was inconclusive: 31.6 µM [inhibitor, single point].
`O=C(NCC1CCCO1)C1CCCN1C(=O)NC1CCCCC1` (centres undefined) was tested, and the “activity change, negative = inhibition” value was inactive: 0.891%.
`COc1cccc(CN2CCNC(=O)C2CC(=O)NCc2cn3ccccc3n2)c1OC` (centres undefined) was tested, and the Potency was inconclusive: 35.5 µM [inhibitor, single point].
For `C[N+]1(C)C2CCC1CC(OC(=O)C(O)c1ccccc1)C2` (centres undefined), the “activity change, negative = inhibition” value was inactive: -1.53%.
With `CO[C@@]12C[C@@H](COC(=O)c3cncc(Br)c3)CN(C)[C@H]1Cc1cn(C)c3cccc2c13` the Potency was inconclusive: 28.2 µM [inhibitor, partial curve, poor fit].
With `Cc1ccc(N(Cc2cc3ccccc3[nH]c2=O)S(=O)(=O)c2ccccc2)cc1` the Potency was inconclusive: 35.5 µM [inhibitor, single point].
With `CC(C)N(CC(N)=O)C(=O)Cc1coc2cc3c(cc12)CCC3` the Potency was inconclusive: 35.5 µM [inhibitor, single point].
For `CCOC(=O)C(=NCC1CCCO1)NNc1ccccc1Cl` (centres undefined), the Potency was inconclusive: 22.4 µM [inhibitor, single point].
`NNC(=O)/C=C/c1ccc(Cl)cc1Cl` was tested, and the “activity change, negative = inhibition” value was inactive: 136%.
`COc1ccccc1C(=O)C1CCCN(C(=O)CCc2ccccn2)C1` (centres undefined) was tested, and the “activity change, negative = inhibition” value was inactive: -11.8%.
For `O=c1[nH]c2ccccc2nc1/C=C/c1ccccc1`, the Potency was inconclusive: 14.1 µM [inhibitor, partial curve].
In the case of `COC(=O)C1=C(C(=O)OC)[C@@H]2Nc3ccccc3[C@@]23C[C@@H](C(=O)OC)N(C(=O)c2ccco2)C3=N1`, the activity change, negative = inhibition was inactive: -3.04% [at 11.4 µM].
For `CC[C@@H]1OC(=O)[C@H](C)[C@H](O[C@@H]2C[C@](C)(OC)[C@H](O)[C@H](C)O2)[C@H](C)[C@H](O[C@@H]2O[C@@H](C)C[C@@H](N(C)C)[C@@H]2O)[C@](C)(O)C[C@H](C)C(=O)[C@H](C)[C@H](O)[C@]1(C)O`, the “activity change, negative = inhibition” value was inactive: -0.0218% [at 25.5 µM].
`COc1cc(C2CC(c3cccnc3)=NN2c2ccc(F)cc2)cc(OC)c1OC` (centres undefined) was tested, and the Potency was inconclusive: 31.6 µM [inhibitor, partial curve].
With `COC(=O)c1cn(NC(=O)Cc2ccc(Cl)c(Cl)c2)c(=O)c2ccccc12` the Potency was inconclusive: 28.2 µM [inhibitor, partial curve].
In the case of `CC1CC(C)CN(CCOc2ccc(Br)cc2)C1` (centres undefined), the Potency was inconclusive: 35.5 µM [inhibitor, single point].
With `CCC(C)n1c(NC(=O)c2ccccc2)c(C#N)c2nc3ccccc3nc21` (centres undefined) the Potency was inconclusive: 25.1 µM [inhibitor, partial curve].
For `Cc1cc(C)nc(N2CCC(C(=O)Nc3ccc4c(c3)OCCO4)CC2)n1`, the Potency was inconclusive: 3.98 µM [inhibitor, full curve, poor fit].
For `O=C(OCCNC(=O)c1cc2ccccc2oc1=O)c1cccnc1`, the Potency was inconclusive: 28.2 µM [inhibitor, single point].
For `Brc1ccc(-c2csc(N/N=C/c3ccco3)n2)cc1`, the Potency was inconclusive: 11.2 µM [inhibitor, partial curve].
For `C(=N\Nc1ccccn1)/c1c[nH]c2ccccc12`, the “activity change, negative = inhibition” value was inactive: -24.9%.
With `Cc1nnsc1C(=O)N/N=C/c1ccccc1Cl` the “activity change, negative = inhibition” value was inactive: 2.37%.
With `CSCc1cc(N2CCOCC2)nc(SCc2ccc(Cl)c(Cl)c2)n1` the Potency was inconclusive: 39.8 µM [inhibitor, single point].
`CC1CCN(S(=O)(=O)c2ccc(C(=O)Nc3nnc(-c4ccncc4)o3)cc2)CC1` was tested, and the Potency was inconclusive: 28.2 µM [inhibitor, single point].
With `COc1ccc(OC)c(-n2c(-c3ccccc3)n[nH]c2=S)c1` the “activity change, negative = inhibition” value was inactive: -25.5%.
`Cc1sc(NC(=O)CCC(=O)O)c(C#N)c1C` was tested, and the “activity change, negative = inhibition” value was inactive: 4.4%.
